Data published in the supplement of paper PMC12067093, “Discovery and optimisation of a covalent ligand for TRIM25 and its application to targeted protein ubiquitination” (Chemical Science, 2025).
Targets with the largest changes are over-represented here; the source holds about 21,000 in all.

Compound: CC1Cc2ccccc2N1C(=O)C1CCCN(C1)C(=O)CCl (mixture of isomers) [TRIM25 ligand 11 (diastereomer mixture)]
Assay: probe-labelled cysteine peptide fold change vs DMSO (competition) (log2 fold change); higher = less target engagement (more negative = stronger competition)
Conditions: THP-1, incubation time: 4 h
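Further: competitive chemoproteomic profiling in live THP-1 cells with an iodoacetamide desthiobiotin (IA-DTB) probe, comparing probe-labelled peptide intensities in compound-treated cells against DMSO-treated controls.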

UniProt Q15063, sequence (Q15063 whole entry, looked up): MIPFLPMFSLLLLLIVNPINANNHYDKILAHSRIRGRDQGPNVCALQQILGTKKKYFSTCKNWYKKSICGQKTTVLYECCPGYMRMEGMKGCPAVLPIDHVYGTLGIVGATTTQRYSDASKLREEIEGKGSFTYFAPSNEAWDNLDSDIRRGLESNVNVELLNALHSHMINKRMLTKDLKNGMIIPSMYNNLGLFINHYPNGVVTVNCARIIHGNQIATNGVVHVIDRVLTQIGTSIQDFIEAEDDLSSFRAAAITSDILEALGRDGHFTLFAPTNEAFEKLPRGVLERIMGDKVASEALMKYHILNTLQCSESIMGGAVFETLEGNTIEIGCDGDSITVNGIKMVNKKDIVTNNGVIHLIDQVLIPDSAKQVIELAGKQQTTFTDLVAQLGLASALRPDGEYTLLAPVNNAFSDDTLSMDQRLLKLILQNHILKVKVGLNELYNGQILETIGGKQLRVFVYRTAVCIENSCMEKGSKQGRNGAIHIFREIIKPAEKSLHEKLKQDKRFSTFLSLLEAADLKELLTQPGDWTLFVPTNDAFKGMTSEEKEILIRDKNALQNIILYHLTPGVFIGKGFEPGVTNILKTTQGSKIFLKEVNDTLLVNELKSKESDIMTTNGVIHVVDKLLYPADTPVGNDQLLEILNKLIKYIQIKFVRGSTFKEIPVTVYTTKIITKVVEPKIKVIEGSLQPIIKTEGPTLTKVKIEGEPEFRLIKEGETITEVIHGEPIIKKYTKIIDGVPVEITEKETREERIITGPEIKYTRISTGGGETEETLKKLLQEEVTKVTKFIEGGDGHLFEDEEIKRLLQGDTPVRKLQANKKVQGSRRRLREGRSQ
UniProt O95394, sequence (O95394 whole entry, looked up): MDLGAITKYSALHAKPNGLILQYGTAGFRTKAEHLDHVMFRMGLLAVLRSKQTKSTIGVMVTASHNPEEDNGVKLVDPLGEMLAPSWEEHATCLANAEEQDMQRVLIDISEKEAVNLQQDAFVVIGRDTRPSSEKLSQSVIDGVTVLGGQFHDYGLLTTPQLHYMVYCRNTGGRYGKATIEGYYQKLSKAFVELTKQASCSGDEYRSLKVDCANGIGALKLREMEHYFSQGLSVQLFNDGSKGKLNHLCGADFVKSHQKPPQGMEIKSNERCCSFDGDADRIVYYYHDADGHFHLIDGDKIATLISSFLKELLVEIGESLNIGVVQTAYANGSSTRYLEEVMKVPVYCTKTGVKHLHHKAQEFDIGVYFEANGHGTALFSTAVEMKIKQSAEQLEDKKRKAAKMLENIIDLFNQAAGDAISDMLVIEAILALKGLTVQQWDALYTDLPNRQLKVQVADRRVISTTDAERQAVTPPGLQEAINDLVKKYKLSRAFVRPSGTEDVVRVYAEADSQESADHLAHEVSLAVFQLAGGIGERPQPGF
UniProt P00491, sequence (P00491 whole entry, looked up): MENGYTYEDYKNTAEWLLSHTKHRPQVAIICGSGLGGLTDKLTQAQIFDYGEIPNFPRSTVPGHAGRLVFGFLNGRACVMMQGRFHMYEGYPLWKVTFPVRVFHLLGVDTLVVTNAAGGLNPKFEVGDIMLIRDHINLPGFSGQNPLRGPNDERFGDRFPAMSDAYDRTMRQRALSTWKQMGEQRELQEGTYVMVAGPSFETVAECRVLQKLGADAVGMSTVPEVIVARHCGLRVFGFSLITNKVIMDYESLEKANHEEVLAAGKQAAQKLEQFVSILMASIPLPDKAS
UniProt O00329, sequence (O00329 whole entry, looked up): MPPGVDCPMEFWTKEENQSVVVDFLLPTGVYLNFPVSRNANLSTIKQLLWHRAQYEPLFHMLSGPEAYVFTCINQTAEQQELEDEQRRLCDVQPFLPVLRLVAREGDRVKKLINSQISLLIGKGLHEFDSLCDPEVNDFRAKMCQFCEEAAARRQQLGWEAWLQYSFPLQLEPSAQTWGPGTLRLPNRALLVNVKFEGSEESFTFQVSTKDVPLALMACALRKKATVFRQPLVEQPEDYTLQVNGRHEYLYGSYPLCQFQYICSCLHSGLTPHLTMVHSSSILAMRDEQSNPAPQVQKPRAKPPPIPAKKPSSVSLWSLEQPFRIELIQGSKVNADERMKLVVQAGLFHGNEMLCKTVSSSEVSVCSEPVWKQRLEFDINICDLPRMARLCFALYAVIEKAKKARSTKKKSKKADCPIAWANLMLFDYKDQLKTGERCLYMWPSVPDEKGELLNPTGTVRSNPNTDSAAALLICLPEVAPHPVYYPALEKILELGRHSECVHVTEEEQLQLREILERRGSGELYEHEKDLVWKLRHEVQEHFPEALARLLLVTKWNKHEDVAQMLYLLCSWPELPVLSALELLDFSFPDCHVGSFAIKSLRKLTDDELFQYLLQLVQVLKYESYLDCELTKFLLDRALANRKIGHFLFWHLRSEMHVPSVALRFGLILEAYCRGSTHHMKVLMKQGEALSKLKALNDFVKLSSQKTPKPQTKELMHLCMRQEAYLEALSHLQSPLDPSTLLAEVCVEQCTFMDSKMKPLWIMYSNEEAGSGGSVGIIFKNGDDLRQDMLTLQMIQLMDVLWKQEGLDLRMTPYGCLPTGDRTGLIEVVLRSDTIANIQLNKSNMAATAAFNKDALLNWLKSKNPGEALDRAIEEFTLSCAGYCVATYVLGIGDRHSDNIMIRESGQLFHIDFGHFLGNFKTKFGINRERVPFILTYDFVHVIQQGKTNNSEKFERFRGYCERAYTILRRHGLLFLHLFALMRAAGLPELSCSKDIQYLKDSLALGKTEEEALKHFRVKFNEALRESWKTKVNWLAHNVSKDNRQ
UniProt Q6P996, sequence (Q6P996 whole entry, looked up): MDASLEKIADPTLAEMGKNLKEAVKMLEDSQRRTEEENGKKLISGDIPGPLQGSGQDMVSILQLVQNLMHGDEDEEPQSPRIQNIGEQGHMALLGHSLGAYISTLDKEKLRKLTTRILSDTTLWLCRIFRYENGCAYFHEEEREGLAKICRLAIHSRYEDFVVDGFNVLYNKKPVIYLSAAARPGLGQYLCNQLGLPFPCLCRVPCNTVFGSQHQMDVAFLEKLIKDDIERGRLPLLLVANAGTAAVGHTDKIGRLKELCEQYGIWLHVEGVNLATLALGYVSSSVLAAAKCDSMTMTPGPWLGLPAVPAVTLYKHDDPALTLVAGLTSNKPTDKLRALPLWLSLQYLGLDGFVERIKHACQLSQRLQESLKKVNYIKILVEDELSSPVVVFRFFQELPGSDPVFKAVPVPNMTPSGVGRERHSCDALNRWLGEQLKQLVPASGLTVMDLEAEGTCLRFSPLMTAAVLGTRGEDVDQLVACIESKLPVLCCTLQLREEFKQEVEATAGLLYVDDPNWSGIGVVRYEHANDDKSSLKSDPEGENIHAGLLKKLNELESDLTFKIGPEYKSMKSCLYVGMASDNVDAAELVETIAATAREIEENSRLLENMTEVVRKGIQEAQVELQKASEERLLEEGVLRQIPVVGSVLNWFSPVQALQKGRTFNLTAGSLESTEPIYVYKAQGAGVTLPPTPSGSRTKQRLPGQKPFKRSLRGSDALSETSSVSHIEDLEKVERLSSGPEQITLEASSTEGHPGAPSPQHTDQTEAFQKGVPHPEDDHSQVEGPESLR
UniProt O14802, sequence (O14802 whole entry, looked up): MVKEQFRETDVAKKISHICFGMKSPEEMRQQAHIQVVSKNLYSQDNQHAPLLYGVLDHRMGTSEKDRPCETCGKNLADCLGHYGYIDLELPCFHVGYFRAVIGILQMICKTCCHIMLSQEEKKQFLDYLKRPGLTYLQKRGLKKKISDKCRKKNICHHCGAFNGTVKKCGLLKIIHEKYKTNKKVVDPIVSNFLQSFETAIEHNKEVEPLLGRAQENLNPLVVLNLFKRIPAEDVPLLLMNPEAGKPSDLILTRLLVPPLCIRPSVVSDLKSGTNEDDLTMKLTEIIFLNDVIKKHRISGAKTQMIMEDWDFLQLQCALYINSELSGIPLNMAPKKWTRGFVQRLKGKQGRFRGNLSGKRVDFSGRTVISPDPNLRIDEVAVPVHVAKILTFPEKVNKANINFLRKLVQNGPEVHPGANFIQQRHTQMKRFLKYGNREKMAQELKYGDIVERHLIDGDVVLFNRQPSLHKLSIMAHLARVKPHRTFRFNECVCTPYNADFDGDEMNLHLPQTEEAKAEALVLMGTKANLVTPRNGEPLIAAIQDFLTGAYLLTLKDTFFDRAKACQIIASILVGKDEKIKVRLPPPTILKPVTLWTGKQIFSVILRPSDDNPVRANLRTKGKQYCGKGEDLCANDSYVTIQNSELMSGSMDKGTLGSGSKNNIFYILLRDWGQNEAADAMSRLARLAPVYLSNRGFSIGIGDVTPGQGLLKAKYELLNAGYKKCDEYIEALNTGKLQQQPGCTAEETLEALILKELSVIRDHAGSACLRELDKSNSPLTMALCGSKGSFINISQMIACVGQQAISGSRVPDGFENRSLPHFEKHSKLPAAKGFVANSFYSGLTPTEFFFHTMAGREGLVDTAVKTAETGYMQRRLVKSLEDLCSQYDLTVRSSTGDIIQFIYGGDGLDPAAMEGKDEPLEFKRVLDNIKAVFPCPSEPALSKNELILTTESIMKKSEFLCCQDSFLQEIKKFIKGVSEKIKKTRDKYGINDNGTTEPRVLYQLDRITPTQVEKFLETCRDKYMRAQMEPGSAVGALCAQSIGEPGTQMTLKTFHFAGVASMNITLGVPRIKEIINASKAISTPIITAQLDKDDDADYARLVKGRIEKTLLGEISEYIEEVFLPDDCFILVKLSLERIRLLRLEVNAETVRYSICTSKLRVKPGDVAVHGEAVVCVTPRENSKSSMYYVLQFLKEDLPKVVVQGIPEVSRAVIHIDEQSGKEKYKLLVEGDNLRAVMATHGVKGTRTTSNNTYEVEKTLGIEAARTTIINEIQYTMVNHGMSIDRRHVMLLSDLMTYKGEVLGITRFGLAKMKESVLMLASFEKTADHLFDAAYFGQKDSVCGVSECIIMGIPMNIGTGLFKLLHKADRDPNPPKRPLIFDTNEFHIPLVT

Target	probe-labelled cysteine peptide fold change (10 µM)	probe-labelled cysteine peptide fold change (50 µM)
PLEC_Q15149_4254_CITDPQTGLCLLPLK (UniProt Q15149)	0.107	0.575
POLR3A_O14802_1174_VKPGDVAVHGEAVVCVTPR (UniProt O14802)	0.0669	0.179
PGM3_O95394_93_LVDPLGEMLAPSWEEHATCLANAEEQDMQR (UniProt O95394)	0.59	0.0508
PIK3CD_O00329_90_LCDVQPFLPVLR (UniProt O00329)	0.0535	0.0689
PPP3CA_Q08209_256_GCSYFYSYPAVCEFLQHNNLLSILR (UniProt Q08209)	-0.45	-0.68
PRPF3_O43395_37_RVLGFSEPTVVTAALNCVGK (UniProt O43395)	-0.604	-0.0882
PDXDC1_Q6P996_425_HSCDALNR (UniProt Q6P996)	0.0114	-0.0777
PNKP_Q96T60_308_DFSCADR (UniProt Q96T60)	-0.0263	-0.0963
PNP_P00491_31_HRPQVAIICGSGLGGLTDKLTQAQIFDYGEIPNFPR (UniProt P00491)	-0.69	-0.229
POSTN_Q15063_80_TTVLYECCPGYMR (UniProt Q15063)	0.757	0.621
